In PubChem BioAssay AID1671193 (National Center for Advancing Translational Sciences (NCATS), 2021):
The campaign covered roughly 150,000 compounds. About 180 (0.12%) were called active. The shares of active, inactive and inconclusive entries below differ from those in the screen. Calls follow the shape of the dose curve; as a rule, active = well fitted cell-killing curve with a large enough effect; inconclusive = small, poorly fitted or top-dose-only effect, or effect the other way; inactive = flat fitted curve, though single readings scatter. Where the call is inconclusive, the potency comes from a doubtful curve fit.

Experiment: GF-AFC viability counterscreen for inhibitors of alpha-synuclein gene (SNCA) expression; also: nearly all actives have a fitted effect of over 30% in size
Conditions: HEK-293-SNCA-luc viability, GF-AFC fluorescence, 24 h; activity change, negative = cytotoxicity: at 57.1 µM (top of the series) unless noted
Excerpt: Assay Submitter (PI): Daniel R. Scoles Ph.D.
Department of Neurology, University of Utah, Salt Lake City, Utah
Accumulation of alpha-synuclein is a main underlying pathological feature of Parkinson's disease (PD) and alpha-synucleinopathies, for which lowering expression of the alpha-synuclein gene (SNCA) is a potential therapeutic avenue. Using a cell-based luciferase reporter of SNCA expression we performed a quantitative high throughput screen (qHTS) of 155,885 compounds in dose response. The screening assay was generated using genome editing to insert the luciferase gene downstream and in frame of the SNCA gene in HEK-293 cells (1). A viability counterscreen using GF-AFC was used to eliminate cytotoxic and false positive compounds. After in silico analysis (clustering, removal of frequent hitter nuisance chemotypes), inhibitor compounds from the primary screen were selected for follow up and re-tested at 11-doses in the SNCA-luc cells (luciferase and GF-AFC confirmation), and in CMV-luc expressing cell line to flag general transcriptional repressors.
Described herein are the results of the GF-AFC viability counterscreen for SNCA inhibitors; inactivity (no decrease in fluorescence signal, not cytotoxic) is the desired output for this assay.
1. Dansithong, W., Paul, S., Scoles, D. R., Pulst, S. M., and Huynh, D. P. (2015) Generation of SNCA Cell Models Using Zinc Finger Nuclease (ZFN) Technology for Efficient High-Throughput Drug Screening. PLoS ONE 10, e0136930.
SEQUENCE No. (e.g., 1, 2, 3, etc.); […] (e.g., Cells, Incubation, Reagent, etc.); VALUE; DESCRIPTION
1; Cells; 4 uL; Dispense 1500 HEK-293-SNCA-luc cells/well into Greiner 1536-well white / solid bottom tissue culture treated plate. The plate was covered with metal lids with gas-exchange holes.
2; Incubate; 24 hours; Incubate at 37C, 5% CO2, 95% RH.
3; Compounds; 23 nL; Compounds and controls were transferred via a Kalypsys Pin Tool (Wako USA) equipped with a 1536-slotted pin array. The plate was covered with metal lids with gas-exchange holes.
4; Incubate; 24 hours; Incubate at 37C, 5% CO2, 95% RH.
5; Dispense; 1 uL; Dispense Gly-Phe-7-amino-4-trifluoromethylcoumarin (GF-AFC, prepared at 125 uM in PBS) was added. The plate was covered with metal lids with gas-exchange holes.
6; Incubate; 30 min; Incubate at 37C, 5% CO2.
7; Detector; Fluorescence; Measure fluorescence with ViewLux microplate reader (PerkinElmer) equipped with 405/10 excitation and 540/25 emission filters.
8; Dispense; 3 uL; Dispense ONE-Glo ([…]) lucifase detection reagent was added to each well. Plates were covered with metal lids with gas-exchange holes.
9; Incubate; 15 min; Incubate at room temperature.
10; Detector; Luminescence; Measure luminescence with ViewLux microplate reader (PerkinElmer) equipped with clear filters.
NOTES (numbers refer to sequence above)
1; HEK-293-SNCA-luc were cultured and suspended in phenol-red free DMEM (4.5 g/L glucose, 25 mM HEPES, cat #21063 (Thermo)).
3; Compounds were added to the assay plate in an 11-point intra plate dose response, 1:3 titration in DMSO with a final concentration range of […]. Vehicle-only plates, with DMSO being pin-transferred to every well, were inserted at the beginning of screening runs to confirm expected assay performance. Activity was normalized to wells containing medium only (-100% activity, full inhibition) and SNCA-luc cells treated with DMSO vehicle control (0% activity), contained on the same plate as test samples.
10; Signals were analyzed, and dose-response curves were fit using the Hill equation. Compounds in curve classes -1.1, -1.2, -2.1, -2.2 in the SNCA-luc assay were considered active. Compounds were eliminated from further consideration if also active (curve class -1.1, -1.2, -1.3, -1.4, -2.1, -2.2, -2.3, -2.4) in the GF-AFC cytotoxicity assay.
Potency is read from the fitted curve at half-maximal effect; tags tell the direction and shape of the fitted curve.

Row | Structure (SMILES) | Potency | activity change, negative = cytotoxicity
1 | O=C(NCCc1ccccc1)c1nc(-c2ccc(Cl)cc2)n2c1CCCCC2 | inconclusive: 35.5 µM [cytotoxic, single point] | –
2 | CN1CCN(C2CCN(C(=O)Nc3cc(Oc4ccc(NC(=O)C5(C(=O)Nc6ccc(F)cc6)CC5)c(F)c4)ccn3)CC2)CC1 | inconclusive: 3.36 µM [cytotoxic, full curve, poor fit] | –
3 | COc1cccc(-c2ncc3c(n2)OCCN(c2ccccc2)C3=O)c1 | – | inactive: -7.53% [at 87.6 µM]
4 | O=C(CS)Nc1ccccc1 | – | inconclusive: 63.7% [at 23.9 µM]
5 | O=C(Cn1c2c(c(=O)n1Cc1ccccc1)CCN(Cc1ccccc1)C2)NCc1cccc(Cl)c1 | inconclusive: 2.82 µM [cytotoxic, full curve, poor fit] | –
6 | O=C(NCC1CC1)c1cc2n(n1)CC(c1ccc(Cl)cc1)OC2 (configuration not stated) | – | inactive: -3.08%
7 | COc1ccc(-c2nc3cnc(N4CCN(C)CC4)nc3n(-c3ccc(OC)cc3)c2=O)cc1 | inconclusive: 14.1 µM [rising, partial curve] | –
8 | N#Cc1cccc(CN2C[C@H](O)C[C@H]2c2nc(-c3ccc4c(c3)OCO4)no2)c1 | – | inactive: -23.4% [at 87.6 µM]
9 | COc1ccccc1C(=O)NC[C@H]1Cn2c(-c3ccc(Cl)cc3)cnc2CO1 | inconclusive: 56.2 µM [cytotoxic, single point] | –
10 | COc1ccc(OC)c(CNC(=O)C23CCC=C2N(C2CCCC2)C(=O)CC3)c1 (configuration not stated) | inconclusive: 6.31 µM [cytotoxic, single point] | –
11 | Cc1ccc(S(=O)(=O)N2CCC(n3cnnc3-c3ccccc3)CC2)cc1Cl | – | inactive: -1.17%
12 | Cn1cccc1CN1CCn2c(nn(-c3ccc(Cl)cc3)c2=O)C1 | inconclusive: 28.2 µM [cytotoxic, partial curve, poor fit] | –
13 | CCOc1cc(C(=O)NCCc2sc(-c3ccc(F)cc3)nc2C)cc(OCC)c1OCC | inconclusive: 39.8 µM [cytotoxic, single point] | –
14 | COc1c(CCC(=O)O)cccc1O[C@@H]1O[C@H](CO)[C@@H](O)[C@H](O)[C@H]1O | – | inactive: -11%
15 | N#Cc1ccccc1CN1CCNc2nc(COc3cccc(N4CCOCC4)c3)n(Cc3ccccc3)c2C1=O | inconclusive: 11.2 µM [cytotoxic, partial curve, poor fit] | –
16 | O=C(CC1N=C2c3ccccc3N=C(SCc3cccc(Cl)c3)N2C1=O)NCc1ccc2c(c1)OCO2 (configuration not stated) | inconclusive: 7.94 µM [cytotoxic, partial curve] | –
17 | CCOC(=O)c1ccc2c(c1)N(CC(=O)N(C)c1ccccc1)C(=O)c1ccccc1S2 | inconclusive: 22.4 µM [cytotoxic, single point] | –
18 | CCOc1ccccc1CN1CCC2(CCN(C(=O)c3cccc(OC)c3)CC2)Oc2ccccc21 | inconclusive: 22.4 µM [cytotoxic, partial curve, poor fit] | –
19 | C=C(C=O)[C@]1(O)C[C@@]2(C)C(=CC1=O)C=C[C@H](OC(=O)/C=C/C=C/[C@H](C)CC)[C@@H]2C | active: 8.22 µM | –
20 | CC(=O)N1CCc2c(sc(NC(=O)CSc3ccccc3)c2-c2nc3ccccc3s2)C1 | inconclusive: 22.4 µM [cytotoxic, single point] | –
21 | CCOc1ccccc1NC(=O)N1CC(CC)Oc2ccccc21 (configuration not stated) | inconclusive: 0.891 µM [rising, full curve] | –

Row | Structure (SMILES) | Potency | activity change, negative = cytotoxicity
22 | CCN1CCN(C2(C(=O)NCCC3CCCCO3)Cc3ccccc3C2)CC1 (configuration not stated) | inconclusive: 5.62 µM [cytotoxic, partial curve, poor fit] | –
23 | COc1cccc(CNCCNC(=O)c2nonc2N)c1 | inconclusive: 2.51 µM [rising, full curve, poor fit] | –
24 | COc1ccc(NC(=O)c2oc3ccc(S(=O)(=O)N4CCCCC4)cc3c2C)cc1 | inconclusive: 31.6 µM [cytotoxic, single point] | –
25 | CC(=O)c1cccc(NC(=O)c2oc3c(c2C)-c2nn(Cc4ccc(Cl)cc4)cc2CC3)c1 | – | inactive: -2.83%
26 | COCC(=O)N[C@H](C)c1onc(-c2cccnc2)c1C(=O)O | – | inactive: 13.1% [at 87.6 µM]
27 | CC(NC(=O)c1ccc(-c2ccc(N3CCCCCC3)nc2)cc1)c1cccnc1 (configuration not stated) | inconclusive: 31.6 µM [cytotoxic, single point] | –
28 | COc1cc(-c2ccnc3nc(CCC4CCCC4)nn23)cc(OC)c1OC | inconclusive: 12.6 µM [cytotoxic, partial curve] | –
29 | O=C1NCCCCCN(C(=O)c2ccsc2)[C@@H]2C[C@@H](C(=O)N3CCc4ccccc4C3)C[C@H]12 | inconclusive: 31.6 µM [cytotoxic, single point] | –
30 | O=C(Nc1nn(CC(F)(F)F)c2cccc(Oc3cccnc3)c12)c1cocn1 | – | inactive: -3.38%
31 | COc1ccc(C2c3c(n(C)c4ccccc34)C(=O)N2CC(=O)Nc2cc(Cl)ccc2C)cc1 (configuration not stated) | – | inconclusive: 22.6%
32 | COC(=O)c1ccc(NC(=O)CC2Nc3cc(C)c(C)cc3NC2=O)cc1 (configuration not stated) | inconclusive: 39.8 µM [cytotoxic, single point] | –
33 | CCNc1nccc(N2CCC(CC(=O)N3CCN(c4ccccc4F)CC3)CC2)n1 | inconclusive: 3.98 µM [cytotoxic, partial curve] | –
34 | CCC(C)NC(=O)N1CC(c2nc(CCOCC3CCOCC3)no2)C1 (configuration not stated) | inconclusive: 4.47 µM [cytotoxic, single point] | –
35 | C=C1C(=O)O[C@@H]2[C@H]3O[C@]3(C)CCC=C(C)CC[C@@H]12 | inconclusive: 39.8 µM [cytotoxic, single point] | –
36 | Cc1ccc(C(=O)Nc2nc3n(n2)C(c2ccc(F)cc2)C=C(c2ccccc2)N3)cc1 (configuration not stated) | inconclusive: 25.1 µM [rising, partial curve, poor fit] | –
37 | COc1ccc(CN2CC[C@H](c3nnc(-c4ccncc4)o3)C2)cc1 | – | inactive: 5.92% [at 87.6 µM]
38 | C=CC(=O)Nc1cccc(Nc2nc(NC3CCC(N(C)C)CC3)nc3c2ncn3C(C)C)c1 (configuration not stated) | inconclusive: 10.8 µM [cytotoxic, partial curve] | –
39 | O=C(CN1C(=O)COc2ccc(S(=O)(=O)N3CCCC3)cc21)N1CCN(c2ccc(Cl)cc2)CC1 | inconclusive: 25.1 µM [cytotoxic, partial curve, poor fit] | –
40 | Cc1cc(CNc2ncnc3c2CCN(C(=O)c2ccoc2)CC3)no1 | – | inactive: -1.02%
41 | COCCCNC(=O)N1[C@H](c2cccs2)[C@@H](C)C(=O)[C@@H](C)[C@@H]1c1cccs1 | inconclusive: 20 µM [cytotoxic, partial curve, poor fit] | –
42 | O=C(c1cnccn1)N1CCC[C@@]2(CCN(Cc3ccccc3)C2)C1 | inconclusive: 7.08 µM [cytotoxic, single point] | –

Row | Structure (SMILES) | Potency | activity change, negative = cytotoxicity
43 | O=C(Cn1cc(C(=O)c2ccncc2)c(=O)c2cc(F)ccc21)Nc1ccc(Cl)cc1 | inconclusive: 28.2 µM [cytotoxic, single point] | –
44 | O=C(c1ccsc1)N1CCC2(CC1)NC(=O)N(Cc1ccccc1)C2=O | – | inactive: 6.3%
45 | COc1ccc(C(=O)Nc2ccccc2SCc2cc(=O)c3cccc(C)c3[nH]2)cc1 | inconclusive: 2.24 µM [cytotoxic, full curve, poor fit] | –
46 | O=C1NC(=O)C(=Cc2ccc3nccc(-c4ccncc4)c3c2)S1 | inconclusive: 0.341 µM [cytotoxic, full curve] | –
47 | CCOC(=O)CSc1nc2ccccc2c(=O)n1-c1cccc(C)c1 | inconclusive: 8.91 µM [cytotoxic, full curve, poor fit] | –
48 | Cc1ccc(N2C(=O)N(Cc3cc(=O)n4ccccc4n3)c3ccccc3S2(=O)=O)cc1Cl | inconclusive: 8.91 µM [cytotoxic, partial curve] | –
49 | COCCNCc1ccc(-c2cc3nccc(Oc4ccc(NC(=S)NC(=O)Cc5ccc(F)cc5)cc4F)c3s2)nc1 | inconclusive: 37.7 µM [cytotoxic, single point] | –
50 | Cc1nc(-c2ccccc2)n(Cc2ccc(F)cc2Cl)c(=O)c1CCO | inconclusive: 39.8 µM [cytotoxic, single point] | –
51 | CCN(CC)S(=O)(=O)c1ccc2c(c1)N(CC(=O)N1CCN(c3cccc(OC)c3)CC1)C(=O)CO2 | inconclusive: 5.62 µM [cytotoxic, full curve] | –
52 | CC(C)CNc1ccc2c(n1)C(C)(C(=O)NC1COC1)CN(Cc1ccccc1)C2 (configuration not stated) | inconclusive: 28.2 µM [cytotoxic, single point] | –
53 | COc1ccc(N2C(=O)CSC23CCN(C(=O)Nc2ccc(C)cc2)CC3)cc1 | – | inactive: 2.95%
54 | O=C1NCCCCCCN(C(=O)CC2CCCCC2)[C@H]2C[C@H](c3nc(-c4cnccn4)no3)C[C@@H]12 | – | inactive: -22.9%
55 | O=C(c1cccc2[nH]ccc12)N1C[C@@H](CO)[C@H](c2nc(C3CC3)no2)C1 | – | inactive: 1.04%
56 | CCOc1ccccc1NC(=O)C(CC(C)C)NS(=O)(=O)c1ccc2c(c1)oc(=O)n2C (configuration not stated) | – | inconclusive: 55%
57 | CN(C)C[C@@H]1CN(S(C)(=O)=O)C[C@H]1NC(=O)c1ccsc1 | inconclusive: 8.91 µM [cytotoxic, partial curve] | –
58 | COc1ccc(NC(=O)N2CC3(CCN(S(C)(=O)=O)CC3)C2)cc1 | inconclusive: 39.8 µM [rising, single point] | –
59 | Cc1ccc(-c2cn3cc(C(=O)NCC(C)C)nc3s2)cc1 | – | inactive: 11.5% [at 87.6 µM]
60 | Cc1ccccc1C(=O)NC1(C(F)(F)F)N=C(c2ccccc2)N(C2CCCCC2)C1=O (configuration not stated) | inconclusive: 1.58 µM [cytotoxic, full curve, poor fit] | –
61 | COCCCNC(=O)N1CCCCCCN(C)C(=O)[C@@H]2CCC[C@@H]21 | inconclusive: 3.55 µM [cytotoxic, single point] | –
62 | CCOC(=O)CCNC(=O)N1CCCCCCNC(=O)[C@@H]2C[C@@H](c3nc(-c4cccnc4)no3)C[C@@H]21 | inconclusive: 8.91 µM [cytotoxic, partial curve, poor fit] | –
